In patent publication US4602011A, “Antimicrobial compositions and methods of using same” (Chapman Chemical Company, priority 1982, dated 1986):
≈ marks a conversion by molar mass, not a printed value.

Test system: Salmonella cholerasuis (10708)
Assay: minimum bactericidal concentration
Settings: for MBC: Salmonella, 24 h, read-out: Minimum bactericidal concentration

Row | Structure (SMILES) | MBC [µg/mL] | Minimum bactericidal concentration (ppm of active ingredient) [ppm]
1 | Oc1c(Cl)c(Cl)c(Cl)c(Cl)c1Cl [F] | 250 to 500 (≈ 939 to 1880 µM) | 
2 | CCCCCCCCCCCCc1ccc(S(=O)(=O)O)cc1 [DDBSA, dodecyl benzene sulfonic acid] |  | 1000
3 | CCCS(=O)(=O)c1c(Cl)cnc(Cl)c1Cl [G] | 165 (≈ 572 µM) | 
